# Assay results from the supplement of paper PMC8728848.
# Some of the results follow.
# B1: Pwp2 (Candida glabrata) (protein)
# chain: MGSSHHHHHHSSGLVPRGSHMASKNPVELNNVCTFPNDYGRIPGFTVLVGRLGLLISASDYKELLRYPGAFLIATQDTMTTSPNFELTGFPFFTGLYGLTVFPLDLLVELRGYFVPPNSGQYTFTLSDSDDAAIIFLGNPSAFPCGDLQNWPKPSEEDITVTDHLFPSRTLYLIEGVAYPMRIAYYNGIGAGRLNAAFIDPSGTRHTNWEGYIWQYDPCSTCTYS
# What was measured:
# Test in all cases: glycan array binding signal (z-score within array); higher = stronger binding
# Conditions in all cases: glycan notation: IUPAC condensed, linker removed
# Fuc(a1-2)Gal = molecular target: Fuc(a1-2)Gal
# Summary of the method: (§1)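 The binding signal is a Z-score computed within each array and averaged over linkers. Arrays of the same protein sequence at different concentrations or buffers were also averaged together. Data originate from 3228 arrays in the Consortium for Functional Glycomics database, kept only where the protein sequence was available.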
# Fuc(a1-2)Gal(b1-3)GalNAc = molecular target: Fuc(a1-2)Gal(b1-3)GalNAc
# Summary of the method: as §1
# [1] = molecular target: Fuc(a1-2)Gal(b1-3)GalNAc(a1-3)[Fuc(a1-2)]Gal(b1-4)Glc
# Summary of the method: as §1
# [2] = molecular target: Fuc(a1-2)Gal(b1-3)GalNAc(a1-3)[Fuc(a1-2)]Gal(b1-4)GlcNAc
# Summary of the method: as §1
# [3] = molecular target: Fuc(a1-2)Gal(b1-3)GalNAc(b1-3)Gal
# Summary of the method: as §1
# [4] = molecular target: Fuc(a1-2)Gal(b1-3)GalNAc(b1-3)Gal(a1-4)Gal(b1-4)Glc
# Summary of the method: as §1
# [5] = molecular target: Fuc(a1-2)Gal(b1-3)GalNAc(b1-4)[Neu5Ac(a2-3)]Gal(b1-4)Glc
# Summary of the method: as §1
# Fuc(a1-2)Gal(b1-3)GlcNAc = molecular target: Fuc(a1-2)Gal(b1-3)GlcNAc
# Summary of the method: as §1
# [6] = molecular target: Fuc(a1-2)Gal(b1-3)GlcNAc(b1-2)Man(a1-3)[Fuc(a1-2)Gal(b1-3)GlcNAc(b1-2)Man(a1-6)]Man(b1-4)GlcNAc(b1-4)GlcNAc
# Summary of the method: as §1
# [7] = molecular target: Fuc(a1-2)Gal(b1-3)GlcNAc(b1-2)Man(a1-3)[Fuc(a1-2)Gal(b1-3)GlcNAc(b1-2)Man(a1-6)]Man(b1-4)GlcNAc(b1-4)[Fuc(a1-6)]GlcNAc
# Summary of the method: as §1
# [8] = molecular target: Fuc(a1-2)Gal(b1-3)GlcNAc(b1-3)Gal(b1-4)Glc
# Summary of the method: as §1
# [9] = molecular target: Fuc(a1-2)Gal(b1-3)GlcNAc(b1-3)GalNAc
# Summary of the method: as §1
# [10] = molecular target: Fuc(a1-2)Gal(b1-3)GlcNAc(b1-3)[Fuc(a1-2)Gal(b1-3)GlcNAc(b1-6)]GalNAc
# Summary of the method: as §1
# [11] = molecular target: Fuc(a1-2)Gal(b1-3)GlcNAc(b1-3)[Gal(b1-4)GlcNAc(b1-6)]Gal(b1-4)Glc
# Summary of the method: as §1
# [12] = molecular target: Fuc(a1-2)Gal(b1-3)GlcNAc(b1-3)[Neu5Ac(a2-6)Gal(b1-4)GlcNAc(b1-6)]Gal(b1-4)Glc
# Summary of the method: as §1
# [13] = molecular target: Fuc(a1-2)Gal(b1-3)GlcNAc6S
# Summary of the method: as §1
# [14] = molecular target: Fuc(a1-2)Gal(b1-3)[Fuc(a1-4)]GlcNAc
# Summary of the method: as §1
# [15] = molecular target: Fuc(a1-2)Gal(b1-3)[Fuc(a1-4)]GlcNAc(b1-2)Man(a1-3)[Fuc(a1-2)Gal(b1-3)[Fuc(a1-4)]GlcNAc(b1-2)Man(a1-3)]Man(b1-4)GlcNAc(b1-4)GlcNAc
# Summary of the method: as §1
# [16] = molecular target: Fuc(a1-2)Gal(b1-3)[Fuc(a1-4)]GlcNAc(b1-2)Man(a1-3)[Fuc(a1-2)Gal(b1-3)[Fuc(a1-4)]GlcNAc(b1-2)Man(a1-6)]Man(b1-4)GlcNAc(b1-4)[Fuc(a1-6)]GlcNAc(b1-4)[Fuc(a1-6)]GlcNAc
# Summary of the method: as §1
# [17] = molecular target: Fuc(a1-2)Gal(b1-3)[Fuc(a1-4)]GlcNAc(b1-3)[Fuc(a1-3)[Gal(b1-4)]GlcNAc(b1-6)]Gal(b1-4)Glc
# Summary of the method: as §1
# [18] = molecular target: Fuc(a1-2)Gal(b1-3)[Fuc(a1-4)]GlcNAc(b1-3)[Gal(b1-4)GlcNAc(b1-6)]Gal(b1-4)Glc
# Summary of the method: as §1
# Fuc(a1-2)Gal(b1-4)Glc = molecular target: Fuc(a1-2)Gal(b1-4)Glc
# Summary of the method: as §1
# Fuc(a1-2)Gal(b1-4)Glc6S = molecular target: Fuc(a1-2)Gal(b1-4)Glc6S
# Summary of the method: as §1
# Fuc(a1-2)Gal(b1-4)GlcNAc = molecular target: Fuc(a1-2)Gal(b1-4)GlcNAc
# Summary of the method: as §1
# [19] = molecular target: Fuc(a1-2)Gal(b1-4)GlcNAc(b1-2)Man
# Summary of the method: as §1
# [20] = molecular target: Fuc(a1-2)Gal(b1-4)GlcNAc(b1-2)Man(a1-3)[Fuc(a1-2)Gal(b1-4)GlcNAc(b1-2)Man(a1-6)]Man(b1-4)GlcNAc(b1-4)GlcNAc
# Summary of the method: as §1
# [21] = molecular target: Fuc(a1-2)Gal(b1-4)GlcNAc(b1-2)Man(a1-3)[Fuc(a1-2)Gal(b1-4)GlcNAc(b1-2)Man(a1-6)]Man(b1-4)GlcNAc(b1-4)[Fuc(a1-6)]GlcNAc
# Summary of the method: as §1
# [22] = molecular target: Fuc(a1-2)Gal(b1-4)GlcNAc(b1-2)[Fuc(a1-2)Gal(b1-4)GlcNAc(b1-4)]Man(a1-3)[Fuc(a1-2)Gal(b1-4)GlcNAc(b1-2)Man(a1-6)]Man(b1-4)GlcNAc(b1-4)GlcNAc
# Summary of the method: as §1
# [23] = molecular target: Fuc(a1-2)Gal(b1-4)GlcNAc(b1-3)Gal(b1-4)GlcNAc
# Summary of the method: as §1
# [24] = molecular target: Fuc(a1-2)Gal(b1-4)GlcNAc(b1-3)Gal(b1-4)GlcNAc(b1-2)Man(a1-3)[Fuc(a1-2)Gal(b1-4)GlcNAc(b1-3)Gal(b1-4)GlcNAc(b1-2)Man(a1-6)]Man(b1-4)GlcNAc(b1-4)GlcNAc
# Summary of the method: as §1
binder,measurement,setting,value
B1,glycan array binding signal (z-score),Fuc(a1-2)Gal,-0.501
same,glycan array binding signal (z-score),Fuc(a1-2)Gal(b1-3)GalNAc,-0.523
same,glycan array binding signal (z-score),[1],-0.495
same,glycan array binding signal (z-score),[2],-0.104
same,glycan array binding signal (z-score),[3],-0.059
same,glycan array binding signal (z-score),[4],-0.108
same,glycan array binding signal (z-score),[5],-0.132
same,glycan array binding signal (z-score),Fuc(a1-2)Gal(b1-3)GlcNAc,-0.778
same,glycan array binding signal (z-score),[6],2.37
same,glycan array binding signal (z-score),[7],-0.263
same,glycan array binding signal (z-score),[8],-0.416
same,glycan array binding signal (z-score),[9],-0.399
same,glycan array binding signal (z-score),[10],1.29
same,glycan array binding signal (z-score),[11],-0.594
same,glycan array binding signal (z-score),[12],-0.401
same,glycan array binding signal (z-score),[13],2.25
same,glycan array binding signal (z-score),[14],-0.451
same,glycan array binding signal (z-score),[15],0.102
same,glycan array binding signal (z-score),[16],6.32
same,glycan array binding signal (z-score),[17],-0.522
same,glycan array binding signal (z-score),[18],-0.414
same,glycan array binding signal (z-score),Fuc(a1-2)Gal(b1-4)Glc,-0.29
same,glycan array binding signal (z-score),Fuc(a1-2)Gal(b1-4)Glc6S,-0.376
same,glycan array binding signal (z-score),Fuc(a1-2)Gal(b1-4)GlcNAc,-0.966
same,glycan array binding signal (z-score),[19],-0.406
same,glycan array binding signal (z-score),[20],-0.397
same,glycan array binding signal (z-score),[21],-0.088
same,glycan array binding signal (z-score),[22],1.24
same,glycan array binding signal (z-score),[23],0.356
same,glycan array binding signal (z-score),[24],0.852
